Laboratory results as given in paper PMC4361618, “Nab3 Facilitates the Function of the TRAMP Complex in RNA Processing via Recruitment of Rrp6 Independent of Nrd1” (PLoS Genetics, 2015).
Results are given in words; binding and its absence hold for the method and conditions named. In cells and extracts the contact can be indirect. Some entries that bind do so weakly or less than the wild type. Tags and fused reporters may be left off the sequences shown.

Legend:
[1] = target: T1, TAP-tagged Rrp6 (S. cerevisiae) (UniProt Q12149); assay: co-IP; TAP-tagged Rrp6 precipitated on IgG Sepharose beads from lysates of RRP6-TAP yeast cells expressing Myc-tagged Nab3 proteins; IPP100 buffer (100 mM NaCl), overnight at 4°C; presence of RNase A (5 μl of 20 mg/ml); anti-Myc immunoblot
T1 sequence: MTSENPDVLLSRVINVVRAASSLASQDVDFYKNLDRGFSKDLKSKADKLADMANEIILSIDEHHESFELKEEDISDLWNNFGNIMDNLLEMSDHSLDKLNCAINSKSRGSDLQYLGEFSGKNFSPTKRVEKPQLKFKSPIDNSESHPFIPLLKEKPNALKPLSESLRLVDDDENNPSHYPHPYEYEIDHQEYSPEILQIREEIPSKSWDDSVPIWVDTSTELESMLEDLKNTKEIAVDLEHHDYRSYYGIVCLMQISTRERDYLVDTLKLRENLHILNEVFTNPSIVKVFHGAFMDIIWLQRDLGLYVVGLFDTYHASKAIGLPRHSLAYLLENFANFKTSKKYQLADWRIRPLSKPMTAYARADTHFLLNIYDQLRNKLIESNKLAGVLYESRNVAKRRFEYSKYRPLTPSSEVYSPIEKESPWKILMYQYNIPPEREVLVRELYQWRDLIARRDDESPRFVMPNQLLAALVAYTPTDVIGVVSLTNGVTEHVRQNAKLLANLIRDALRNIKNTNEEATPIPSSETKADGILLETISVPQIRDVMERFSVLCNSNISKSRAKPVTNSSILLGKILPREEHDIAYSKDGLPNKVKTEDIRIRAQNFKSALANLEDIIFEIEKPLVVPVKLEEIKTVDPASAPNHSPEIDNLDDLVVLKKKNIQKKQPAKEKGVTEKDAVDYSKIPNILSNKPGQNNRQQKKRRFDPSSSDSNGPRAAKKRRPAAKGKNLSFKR

TAP-tagged Nrd1 = target: T2, TAP-tagged Nrd1 (S. cerevisiae, UniProt P53617 1-575); assay: co-IP; TAP-tagged Nrd1 precipitated on IgG Sepharose beads from lysates of NRD1-TAP yeast cells expressing Myc-tagged Nab3 proteins; IPP150 buffer (10 mM Tris-HCl pH 8, 150 mM NaCl, 0.1% NP-40), overnight at 4°C; anti-Myc immunoblot; % bound relative to input and to bound wild-type Nab3
T2 construct: also called Nrd1-TAP; source: S. cerevisiae NRD1-TAP strain (ACY2293; Thermo Scientific Open Biosystems), in lysate
T2 sequence (looked up): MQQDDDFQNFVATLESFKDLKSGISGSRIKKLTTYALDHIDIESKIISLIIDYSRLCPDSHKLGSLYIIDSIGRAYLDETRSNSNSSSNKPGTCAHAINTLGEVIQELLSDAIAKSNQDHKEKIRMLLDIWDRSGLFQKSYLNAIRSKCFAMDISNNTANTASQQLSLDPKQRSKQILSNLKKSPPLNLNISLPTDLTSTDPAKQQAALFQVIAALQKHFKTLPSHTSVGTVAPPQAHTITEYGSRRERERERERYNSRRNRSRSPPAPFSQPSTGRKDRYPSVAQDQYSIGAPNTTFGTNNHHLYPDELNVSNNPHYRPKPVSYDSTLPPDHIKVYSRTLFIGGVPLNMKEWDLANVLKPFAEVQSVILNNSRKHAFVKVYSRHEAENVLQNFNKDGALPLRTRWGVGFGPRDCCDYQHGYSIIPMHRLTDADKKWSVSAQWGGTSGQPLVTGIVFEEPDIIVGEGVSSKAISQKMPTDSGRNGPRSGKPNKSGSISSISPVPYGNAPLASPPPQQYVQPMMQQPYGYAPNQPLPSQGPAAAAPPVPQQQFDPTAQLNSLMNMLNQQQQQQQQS

[2] = target: T3, TAP-tagged Dis3 (S. cerevisiae) (UniProt Q08162); assay: co-IP; TAP-tagged Dis3 precipitated on IgG Sepharose beads from lysates of DIS3-TAP yeast cells expressing Myc-tagged Nab3 proteins; IPP150 buffer, overnight at 4°C; anti-Myc immunoblot
T3 sequence: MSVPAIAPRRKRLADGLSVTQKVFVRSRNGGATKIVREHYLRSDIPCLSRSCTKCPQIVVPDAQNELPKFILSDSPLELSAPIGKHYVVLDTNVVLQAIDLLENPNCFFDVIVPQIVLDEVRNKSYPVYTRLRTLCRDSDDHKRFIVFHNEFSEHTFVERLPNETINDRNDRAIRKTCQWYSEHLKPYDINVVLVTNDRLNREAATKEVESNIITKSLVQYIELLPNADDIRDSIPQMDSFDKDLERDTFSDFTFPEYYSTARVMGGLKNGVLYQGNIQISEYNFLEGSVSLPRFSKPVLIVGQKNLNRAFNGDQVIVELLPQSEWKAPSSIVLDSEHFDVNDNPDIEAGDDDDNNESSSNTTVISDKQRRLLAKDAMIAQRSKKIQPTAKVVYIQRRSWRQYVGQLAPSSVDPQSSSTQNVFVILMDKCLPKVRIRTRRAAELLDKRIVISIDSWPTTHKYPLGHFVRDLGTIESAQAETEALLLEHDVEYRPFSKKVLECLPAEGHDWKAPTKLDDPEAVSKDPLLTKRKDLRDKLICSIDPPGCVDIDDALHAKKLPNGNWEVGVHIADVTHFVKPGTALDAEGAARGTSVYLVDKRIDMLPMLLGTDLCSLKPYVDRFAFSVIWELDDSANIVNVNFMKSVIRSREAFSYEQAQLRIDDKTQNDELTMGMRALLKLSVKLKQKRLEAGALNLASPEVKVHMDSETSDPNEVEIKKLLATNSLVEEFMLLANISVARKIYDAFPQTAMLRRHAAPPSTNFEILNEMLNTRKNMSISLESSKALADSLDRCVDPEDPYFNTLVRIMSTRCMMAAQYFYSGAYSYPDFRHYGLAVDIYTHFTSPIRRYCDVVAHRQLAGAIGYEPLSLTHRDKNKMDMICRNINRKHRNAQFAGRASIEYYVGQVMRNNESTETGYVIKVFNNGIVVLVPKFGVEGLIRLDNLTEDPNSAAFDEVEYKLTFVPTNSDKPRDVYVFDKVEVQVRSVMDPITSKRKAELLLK

[3] = target: T1, TAP-tagged Rrp6 (S. cerevisiae); assay: co-IP; TAP-tagged Rrp6 precipitated on IgG Sepharose beads from lysates of RRP6-TAP yeast cells expressing Myc-tagged Nab3 proteins; IPP100 buffer (100 mM NaCl), overnight at 4°C; absence of RNase A; anti-Myc immunoblot

Measured: binding

B1: Myc-tagged Nab3 (protein, UniProt P38996 1-802)
chain: MSDENHNSDVQDIPSPELSVDSNSNENELMNNSSADDGIEFDAPEEEREAEREEENEEQHELEDVNDEEEEDKEEKGEENGEVINTEEEEEEEHQQKGGNDDDDDDNEEEEEEEEDDDDDDDDDDDDEEEEEEEEEEGNDNSSVGSDSAAEDGEDEEDKKDKTKDKEVELRRETLEKEQKDVDEAIKKITREENDNTHFPTNMENVNYDLLQKQVKYIMDSNMLNLPQFQHLPQEEKMSAILAMLNSNSDTALSVPPHDSTISTTASASATSGARSNDQRKPPLSDAQRRMRFPRADLSKPITEEEHDRYAAYLHGENKITEMHNIPPKSRLFIGNLPLKNVSKEDLFRIFSPYGHIMQINIKNAFGFIQFDNPQSVRDAIECESQEMNFGKKLILEVSSSNARPQFDHGDHGTNSSSTFISSAKRPFQTESGDMYNDDNGAGYKKSRRHTVSCNIFVKRTADRTYAIEVFNRFRDGTGLETDMIFLKPRMELGKLINDAAYNGVWGVVLVNKTHNVDVQTFYKGSQGETKFDEYISISADDAVAIFNNIKNNRNNSRPTDYRAMSHQQNIYGAPPLPVPNGPAVGPPPQTNYYQGYSMPPPQQQQQQPYGNYGMPPPSHDQGYGSQPPIPMNQSYGRYQTSIPPPPPQQQIPQGYGRYQAGPPPQPPSQTPMDQQQLLSAIQNLPPNVVSNLLSMAQQQQQQPHAQQQLVGLIQSMQGQAPQQQQQQLGGYSSMNSSSPPPMSTNYNGQNISAKPSAPPMSHQPPPPQQQQQQQQQQQQQQQQPAGNNVQSLLDSLAKLQK
binds: [1] | TAP-tagged Nrd1 | [2] | [3]
